Measured values published in PubChem BioAssay AID1460 (National Center for Advancing Translational Sciences (NCATS), 2008).
Out of some 270,000 compounds screened, about 5,800 (2.1%) were called active. Inconclusive means that the source gave no clear call. Such entries were picked first, then a sample of the others. Calls follow the shape of the dose curve; as a rule, active = well fitted inhibition curve with a large enough effect; inconclusive = small, poorly fitted or top-dose-only effect; inactive = flat fitted curve, though single readings scatter. Potencies beside an inconclusive call are fits to weak or partial responses and may not hold up.

Biological target: Microtubule-associated protein tau (Homo sapiens) (UniProt P10636)
Experiment: qHTS for Inhibitors of Tau Fibril Formation, Thioflavin T Binding; also: nearly all actives have a fitted effect of over 55% in size
Conditions: recombinant tau K18 P301L (four-repeat tau fragment), heparin-induced fibrillization, ThT fluorescence; series mostly up to 57.4 µM
Source text: NIH Molecular Libraries Probe Production Network [MLPCN]
NIH Chemical Genomics Center [NCGC]
Assay Provider: Carlo Ballatore, University of Pennsylvania
The microtubule-associated protein tau is an abundant protein in the axons of neurons that stabilizes microtubules. With its ability to modulate microtubule dynamics, tau contributes directly or indirectly, to key structural and regulatory cellular functions. Particularly important is the influence tau exerts on axonal transport, which allows signaling molecules, trophic factors and other essential cellular constituents to travel along the axons. Under pathological conditions, tau becomes sequestered into insoluble aggregates called neurofibrillary tangles. This phenomenon is believed to have pathological consequences by promoting axonal transport deficits that ultimately lead to synaptic dysfunction and neuronal loss. To identify inhibitors of tau aggregation, a heparin-induced tau fibril formation assay was used that employed a recombinantly expressed fragment of tau, K18 (Q242-E372), bearing a P301L mutation (Gustke et al. 1994; Hong et al. 1998). This assay monitors tau fibrillization by Thioflavin T (ThT) fluorescence.
Gustke, N., B. Trinczek, et al. (1994). "Domains of tau protein and interactions with microtubules." Biochemistry 33(32): 9511-22.
Hong, M., V. Zhukareva, et al. (1998).
Li, W. and V. M. Lee (2006).
von Bergen, M., S. Barghorn, et al. (2001). "Mutations of tau protein in frontotemporal dementia promote aggregation of paired helical filaments by enhancing local beta-structure." J Biol Chem 276(51): 48165-74.
NCGC Assay Protocol Summary:
For screening, 2 uL/well human K18 P301L (15 uM unlabeled and 0.24 uM Alexa 594-labeled tau, final concentrations) in reagent buffer (100 mM sodium acetate pH 7) was dispensed into black solid 1536-well plates (Grenier) using a solenoid-based dispenser. Following transfer of 23 nL compound or DMSO vehicle by a pin tool, 2 uL/well heparin (20 uM final concentration) in reagent buffer was added and the plate centrifuged 15 s at 1000 RPM. Plates were incubated 6 hr at 37 C and then 1 uL/well ThT (30 uM final concentration) was added. After a 1 hr ambient incubation, the plates were read by an Envision (Perkin Elmer) to monitor ThT fluorescence (450/8 nm excitation and 510/23 nm emission).
Keywords: NIH Roadmap, MLPCN, MLI, MLSMR, NCGC, qHTS, tau, tauopathies, Alzheimer's disease, fibril, neurodegeneration, aggregation
% is scaled to controls: 0 for no effect and ±100 for the full control effect; potency is read from the fitted curve at half-maximal effect; tags tell the direction and shape of the fitted curve.

Sequence of UniProt P10636 (P10636 whole entry, looked up): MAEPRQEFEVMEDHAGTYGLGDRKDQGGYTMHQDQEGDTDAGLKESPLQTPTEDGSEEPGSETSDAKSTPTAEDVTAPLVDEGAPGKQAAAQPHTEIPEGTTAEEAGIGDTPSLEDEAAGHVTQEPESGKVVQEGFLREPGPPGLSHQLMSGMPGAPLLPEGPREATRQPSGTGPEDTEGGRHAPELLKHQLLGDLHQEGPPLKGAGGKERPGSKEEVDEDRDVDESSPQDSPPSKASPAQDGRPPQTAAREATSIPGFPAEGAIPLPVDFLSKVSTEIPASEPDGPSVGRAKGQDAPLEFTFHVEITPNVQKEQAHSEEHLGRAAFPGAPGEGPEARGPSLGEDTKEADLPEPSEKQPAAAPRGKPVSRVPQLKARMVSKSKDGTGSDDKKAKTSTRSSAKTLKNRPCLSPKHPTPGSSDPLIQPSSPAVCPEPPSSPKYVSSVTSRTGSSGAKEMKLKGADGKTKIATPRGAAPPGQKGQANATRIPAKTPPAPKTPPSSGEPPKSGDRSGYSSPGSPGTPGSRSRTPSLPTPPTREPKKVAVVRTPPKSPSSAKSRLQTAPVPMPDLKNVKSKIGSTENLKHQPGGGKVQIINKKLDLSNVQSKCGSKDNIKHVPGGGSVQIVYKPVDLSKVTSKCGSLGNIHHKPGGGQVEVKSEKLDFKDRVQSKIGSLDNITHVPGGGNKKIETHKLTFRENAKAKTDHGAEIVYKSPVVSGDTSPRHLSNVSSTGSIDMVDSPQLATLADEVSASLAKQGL

SMILES	Potency	activity, negative = inhibition
C=CCn1c(SCC(=O)N2CCN(c3ccc(F)cc3)CC2)nnc1-c1ccco1	inconclusive: 3.98 µM [inhibitor, full curve]	–
c1ccc(CCNc2ccnc3cc4ccccc4cc23)cc1	inconclusive: 10 µM [inhibitor, partial curve]	–
CCc1nnc(NS(=O)(=O)c2ccc(NC(=S)NC(=O)/C=C/c3cccs3)cc2)s1	inconclusive: 6.31 µM [inhibitor, partial curve, poor fit]	–
CSCCC(NC(=O)C1CCC(C)CC1)C(=O)NCc1ccco1 (centres undefined)	inconclusive: 39.8 µM [inhibitor, partial curve, poor fit]	–
CC(=O)Nc1ccc(NC(=O)c2ccco2)cc1	inactive	–
CCOC(=O)/C(N=Nc1c(Br)cc(Br)cc1Br)=C(\C)O	inconclusive: 28.2 µM [inhibitor, partial curve]	–
COc1ccc(OCC(=O)N2CCc3c([nH]c4ccccc34)C2c2ccccn2)cc1 (centres undefined)	inconclusive: 39.8 µM [inhibitor, partial curve]	–
CSc1ccccc1NC(=O)c1cnccn1	inconclusive: 22.4 µM [inhibitor, partial curve]	–
Cc1ccc(C2C(C(=O)c3ccco3)=C(O)C(=O)N2c2ncccn2)cc1 (centres undefined)	inactive	–
O=C1c2cccc3cc(Br)cc(c23)C(=O)N1Nc1ccccc1	inconclusive: 25.1 µM [inhibitor, partial curve]	–
CC(=O)c1ccc(Nc2ccc(-c3ccccc3C)nn2)cc1	inconclusive: 8.91 µM [inhibitor, partial curve]	–
CCCOc1ccc(C(=O)NNC(=S)NC(=O)CC)cc1	inconclusive: 17.8 µM [inhibitor, partial curve]	–
Cc1nn(C)c2c1c(-c1ccccc1)cc(=O)n2CC(=O)NC(C)(C)C	inactive	–
Cc1cccc([C@H]2[C@@H]3C=CC[C@@H](C)[C@@H]3C(=O)N2Cc2ccccc2)c1	inconclusive: 6.31 µM [inhibitor, full curve]	–
CCC(C)n1c(=N)c(S(=O)(=O)c2ccccc2)cc2c(=O)n3ccccc3nc21 (centres undefined)	inconclusive: 14.1 µM [inhibitor, partial curve]	–
NNc1nc2c(-c3ccc(F)cc3)nnn2c2ccccc12	inconclusive: 22.4 µM [inhibitor, partial curve]	–
C=CCn1c(SCC(=O)NC2CCS(=O)(=O)C2)nc2scc(C3CC3)c2c1=O (centres undefined)	inconclusive: 39.8 µM [inhibitor, single point]	–
O=C(NN=C1CCCCCCC1)c1ccccn1	inconclusive: 28.2 µM [inhibitor, partial curve]	–
Cc1ccc(NC(=O)Cn2c(=O)nc(-c3ccccc3F)c3cc(Cl)ccc32)c(Br)c1	inconclusive: 22.4 µM [inhibitor, partial curve, poor fit]	–
COc1ccc(-c2coc3cc(O)ccc3c2=O)cc1OC	inconclusive: 12.6 µM [inhibitor, partial curve]	–
Cc1ccccc1-c1nn2c(=O)cc(CN3CCN(C(=O)c4ccccc4Br)CC3)nc2s1	inconclusive: 10 µM [inhibitor, partial curve, poor fit]	–
N#Cc1c(-c2ccccc2)cc(-c2ccccc2)nc1SCC(=O)Nc1ccc(Cl)cc1	inactive	–
Cc1noc(/C=C/N(C)C)c1S(=O)(=O)N1CCC(C(=O)O)CC1	inconclusive: 15.8 µM [inhibitor, single point]	–

SMILES	Potency	activity, negative = inhibition
CC(=O)[C@@H]1[C@@H]2C(=O)N(Cc3ccccc3)C(=O)[C@@H]2C2c3ccccc3C=CN21 (some centres undefined)	inconclusive: 31.6 µM [inhibitor, partial curve]	–
COc1ccc(Nc2ncnc3ccc([N+](=O)[O-])cc23)c(OC)c1	inconclusive: 17.8 µM [inhibitor, single point]	–
COc1ccc(C2=C(N3CCN(c4cc(Cl)ccc4C)CC3)c3ccccc3C2=O)cc1	inconclusive: 10 µM [inhibitor, partial curve]	–
CCc1ccc(-c2ccc3nnc(SCC(=O)Nc4cccc(C(C)=O)c4)n3n2)cc1	inactive	–
Cc1cc(N2CCN(c3ccccc3)CC2)nc(-c2ccccc2)n1	inconclusive: 25.1 µM [inhibitor, partial curve]	–
O=C(NCc1ccco1)/C(=C\c1ccco1)NC(=O)c1cccs1	inconclusive: 17.8 µM [inhibitor, partial curve]	–
Cc1cccc(Oc2ccccc2NC(=O)c2cnccn2)c1	inactive	–
CNc1oc(Cc2cccc3ccccc23)nc1C#N	inactive	–
CCOC(=O)c1cc2c(ccn2C)n1Cc1cc(C)ccc1C	inconclusive: 31.6 µM [inhibitor, single point]	–
O=C(Nc1ccc2ccccc2c1)[C@H]1C[C@@H]1[C@H](NP(=O)(c1ccccc1)c1ccccc1)c1ccccc1	inconclusive: 22.4 µM [inhibitor, single point]	–
COc1ccc2cc(C(=O)NCc3ccccc3)c(=Nc3ccc(C(=O)O)cc3)oc2c1	inconclusive: 12.6 µM [inhibitor, partial curve]	–
NNc1nc(N)c2c(n1)-c1ccccc1CC21CCCC1	inconclusive: 31.6 µM [inhibitor, partial curve]	–
COCCn1c(SCCCC(=O)c2ccc(Br)cc2)nnc1-c1ccncc1	inactive	–
Cc1cc(C)c(OCC(=O)Nc2cccc(-c3nc4ncccc4o3)c2)c(Br)c1	inconclusive: 7.08 µM [inhibitor, partial curve]	–
COc1ccccc1OCC(=O)Nc1cc(-c2ccc(C)cc2)no1	inconclusive: 0.562 µM [inhibitor, full curve]	–
Fc1cccc(CSc2nc(NCCc3ccccc3)c3ccccc3n2)c1	inconclusive: 12.6 µM [inhibitor, single point]	–
COc1cccc([C@H]2Nc3ccc(S(=O)(=O)Nc4cc(C)ccc4C)cc3[C@H]3C=CC[C@H]32)c1	inconclusive: 15.8 µM [inhibitor, partial curve]	–
NC(=O)c1cc2c3ccccc3ccn2c1-c1ccccc1	active: 14.1 µM	–
COc1ccc(NC(=O)CSc2nnc(Cc3cccn3C)n2-c2ccc(F)cc2)cc1OC	inactive	–
O=C(/C(=C/O)N=Nc1ccccc1Cl)c1ccccc1	active: 28.2 µM	–
NC(=O)C1=C[C@@H](c2ccc(Br)cc2)C[C@@H](OCc2ccc(CO)cc2)O1	inconclusive: 28.2 µM [inhibitor, single point]	–
CCOC(=O)N1CCC(N2Cc3cccc(C(=O)Nc4cc(F)ccc4F)c3C2=O)CC1	inconclusive: 11.2 µM [inhibitor, partial curve]	–
C/C(=N\Nc1cccc(Cl)c1)c1ccc(-n2ccnc2)cc1	inconclusive: 15.8 µM [inhibitor, partial curve]	–

SMILES	Potency	activity, negative = inhibition
CCCN(C(=O)NCc1noc2ccc(C)cc12)c1ccc(Cl)c(Cl)c1	inactive	–
CC1=C(C(=O)Nc2cccc(C(F)(F)F)c2)C(c2ccccn2)n2ncnc2N1 (centres undefined)	inactive	–
Fc1cccc(NC(=S)N2CCCC2)c1	inactive	–
COc1ccc(N2CCN(C(=O)c3nn(C)c4c3CSc3ccccc3-4)CC2)cc1	inactive	–
Cc1ccc(Cn2c(N/N=C/c3ccncc3)nc3c2c(=O)n(C)c(=O)n3C)cc1	inconclusive: 28.2 µM [inhibitor, single point]	–
Cn1cc(SCC(=O)Nc2nc3ccccc3s2)c2ccccc21	inconclusive: 17.8 µM [inhibitor, partial curve]	–
Cc1c(OCc2ccccc2)cccc1OCc1ccccc1	inconclusive: 25.1 µM [inhibitor, partial curve, poor fit]	–
CC(=O)c1cccc(NC(=O)c2ccc(-c3ccccc3[N+](=O)[O-])o2)c1	inconclusive: 10 µM [inhibitor, partial curve]	–
CO[C@@H]1COC(=O)CCC[C@@H](C)[C@H](OC)COC(=O)CCC[C@H]1C	–	inactive: -4.35% [at 11.5 µM]
CC(=O)NC1(C(F)(F)F)NC(=O)N(c2ccc(F)cc2)C1=O (centres undefined)	inactive	–
CCOC(=O)N1CCC(Nc2nc3ccccc3n3nnnc23)CC1	inconclusive: 15.8 µM [inhibitor, partial curve]	–
CCCn1c2ccccc2c2cnn(CC(=O)NCCc3cc(OC)ccc3OC)c(=O)c21	inactive	–
CCOC(=O)c1cccc(NC(=O)NCc2ccc3c(c2)CCN3C(=O)CC)c1	inconclusive: 5.62 µM [inhibitor, partial curve, poor fit]	–
COc1ccc2oc(=O)c(-c3nc4ccccc4o3)cc2c1	inconclusive: 14.1 µM [inhibitor, partial curve]	–
Cc1nc(-c2ccc(F)cc2)sc1CCNC(=O)C(=O)Nc1ccc2c(c1)OCO2	inconclusive: 0.398 µM [inhibitor, full curve]	–
Cc1ccc(NC(=O)c2cc3cccc([N+](=O)[O-])c3[nH]2)cc1	inconclusive: 2.24 µM [inhibitor, full curve]	–
CCN(CC)c1ccc(NC(=O)c2sc3nc(-c4ccccc4)cn3c2C)cc1	active: 2.24 µM	–
CCCOC(=O)C1=C(C)NC2=C(C(=O)CCC2)C1c1cccs1 (centres undefined)	inactive	–
N#CCCN(Cc1cccnc1)C(=S)NC(=O)c1ccco1	inactive	–
O=C(/C=C/c1ccc(-c2ccccc2[N+](=O)[O-])o1)c1ccc(F)cc1	inconclusive: 10 µM [inhibitor, partial curve]	–
Cc1cc(C2=NNC(=NCCc3ccccc3)SC2)c(C)n1CC1CCCO1 (centres undefined)	inactive	–
Cc1nc(SCC(=O)c2ccc(F)cc2)n[nH]1	inactive	–
CN1CCN(C(=O)c2cc3c(ccc4ccccc43)oc2=O)CC1	inactive	–
